Like-named read-outs stand apart in the source and are kept apart here.
Columns and labels:
Phytophthora infestans [1] = system: Phytophthora infestans
Description: (§1) The present study investigated the efficacy against a variety of plant pathogens of the commercial product, […]® ASO (Bacillus subtilis QST713 fermentation product), with and without GENAPOL® LRO (sodium C12/C14-fatty alcohol diglycol ether sulfate). The application rates of […]® ASO refer to the amount of (1.67%) Bacillus subtilis QST713 contained in the product […]® ASO.
(§2) ® ASO was diluted in water to concentrations of 1000 ppm, 500 ppm, 250 ppm, and 125 ppm and applied to plants with or without GENAPOL® LRO applied at a concentration of 3000 ppm. Subsequently, the plants were inoculated with the various plant pathogens and scored for percent disease control with the following eight plant pathogen bioassays: (1) tomato late blight, Phytophthora infestans (“Late Blight”); (2) grape downy mildew, Plasmopara viticola (“Downy Mildew”); (3) cucumber powdery mildew, Sphaerotheca fuliginea (“Powdery Mildew”); (4) apple scab, Venturia inaequalis (“Scab”); (5) tomato early blight, Alternaria solani (“Early Blight”); (6) brown rust of snap bean, Uromyces appendiculatus (“Bean Rust”); (7) Asian soybean rust, Phakopsora pachyrhizi (“Soy Rust”); and (8) Botrytis grey mould on snap beans, Botrytis cinerea (“Grey Mould”).

Alternaria solani [2] = test: Tomato early blight bioassay (Example 2); settings: GENAPOL LRO 3000 ppm
Description: as §1, §2

Uromyces appendiculatus = test: Brown rust of snap bean bioassay (Example 2); settings: GENAPOL LRO 3000 ppm
Description: as §1, §2

Phakopsora pachyrhizi = test: Asian soybean rust bioassay (Example 2); settings: GENAPOL LRO 3000 ppm
Description: as §1, §2

Botrytis cinerea [3] = test: Botrytis grey mould on snap beans bioassay (Example 2)
Description: as §1, §2

Phytophthora infestans [4] = settings: rate 0.3%; 3 days after inoculation
Description: (§3) […]® ASO (Bacillus subtilis QST713 fermentation product) and the adjuvant GENAPOL® LRO (sodium C12/C14-fatty alcohol diglycol ether sulfate) were diluted in water to the desired concentrations and applied separately and in combination to young tomato plants. After the spray coating had dried on, the plants were inoculated with an aqueous spore suspension of Phytophthora infestans. Subsequently the plants were placed in an incubation cabinet at approximately 20° C. and a relative atmospheric humidity of 100%. The test was evaluated 3 days after the inoculation. 0% means an efficacy which corresponds to that of the untreated control, while an efficacy of 100% means that no disease is observed.

Plasmopara viticola = test: In vivo preventive test on Plasmopara (grapevines) (Example 8); settings: rate 0.3%; 6 days after inoculation
Description: […]® ASO (Bacillus subtilis QST713 fermentation product) and the adjuvants GENAPOL® LRO (sodium C12/C14-fatty alcohol diglycol ether sulfate), SPAN®20+TWEEN®20 (sorbitan monolaurate; sorbitan monododecanoate) or STICMAN® (synthetic latex) were diluted in water to the desired concentrations and applied separately and in combination to young grape plants. After the spray coating had dried on, the plants were inoculated with an aqueous spore suspension of Plasmopara viticola and remained for 1 day in an incubation cabinet at approximately 20° C. and a relative atmospheric humidity of 100%. Subsequently the plants were placed for 4 days in a greenhouse at approximately 21° C. and a relative atmospheric humidity of approximately 90%. The plants were then misted and placed for 1 day in an incubation cabinet.
The test was evaluated 6 days after the inoculation. 0% means an efficacy which corresponds to that of the untreated control, while an efficacy of 100% means that no disease is observed.

Alternaria solani [5] = test: In vivo preventive test on Alternaria (tomatoes) (Example 11); settings: rate 0.3%; 3 days after inoculation
Description: as §3, with “adjuvants GEROPON® DOS-PG (sodium-2-ethylhexylsulfosuccinate), SILWET® L-77 (polyalkyleneoxide modified heptamethyltrisiloxane),” for “adjuvant”, “sulfate), SYNPERONIC® PE-L64 (ethoxylated/propoxylated alcohol), NIMBUS® (paraffin mineral oil) or SC-TankMix (rapeseed oil methyl ester; castor oil ethoxylated)” for “sulfate)”, “Alternaria solani.” for “Phytophthora infestans.”, “control” for “control,”

Venturia inaequalis = test: In vivo preventive test on Venturia (apples), equilibrated mixtures (Example 17); settings: 10 days after inoculation
Botrytis cinerea [6] = test: In vivo preventive test on Botrytis (beans) (Example 19); settings: lesion size 3 days after inoculation
[7] = system: Xanthomonas campestris pv. vesicatoria; test: In vitro control of Xanthomonas campestris pv. vesicatoria, OD600 in 96-well plates (Example 25); assay type: cell-based; settings: bacterial growth by OD600, mixture = 95% cell-free whole broth + 5% adjuvant
Description: (§4) A whole broth culture of Bacillus subtilis QST713 was prepared in a soy-based medium as described above. Bacillus subtilis cells were removed from the whole broth culture by centrifugation. […] After several hours, the OD600 in each well was measured and compared to the initial OD600 to determine the relative bacterial growth compared to that of the bacterial suspension in the untreated well.

[8] = system: Pseudomonas syringae pv. tomato; test: In vitro control of Pseudomonas syringae pv. tomato, OD600 in 96-well plates (Example 26); assay type: cell-based; settings: bacterial growth by OD600, mixture = 95% cell-free whole broth + 5% adjuvant
Description: as §4, with “medium.” for “medium as described above.”

Botrytis cinerea [9] = test: Effect of equilibration of adjuvant mixtures on in vivo control of Botrytis cinerea (Example 32); settings: average of three measurements
Description: The mixture was diluted in DI water and applied to plants as soon as possible afterwards (“T=0” treatment) or allowed to equilibrate for 24 hours prior to dilution in DI water and application to plants (“T=24” treatment). […] The preparation of the third treatment is similar to that of tank mixes of adjuvants and antifungal agents commonly used by growers. […] The treatments were applied to plants and allowed to dry.

Substance: sodium C12/C14-fatty alcohol diglycol ether sulfate [GENAPOL ® LRO]
- Percent Disease Control Late Blight (Phytophthora infestans [1]; GENAPOL LRO 3000 ppm): 0%
- Efficacy in % Found (Phytophthora infestans [1]; Late Blight, rate 3000 ppm): 0%
- Percent Disease Control Early Blight (Alternaria solani [2]): 0%
- Percent Disease Control Bean Rust (Uromyces appendiculatus): 40%
- Percent Disease Control Soy Rust (Phakopsora pachyrhizi): 30%
- Percent Disease Control Grey Mould (Botrytis cinerea [3]; GENAPOL LRO 3000 ppm): 23%
- Efficacy in % Found (Botrytis cinerea [3]; Grey Mould, rate 3000 ppm): 23%
- Efficacy in % Found (Phytophthora infestans [4]): 0%
- Efficacy in % Found (Plasmopara viticola): 59%
- Efficacy in % Found (Alternaria solani [5]): 0%
- Efficacy in % Found (Venturia inaequalis; rate 0.03%): 33%
- Efficacy in % Found (Venturia inaequalis; rate 0.06%): 53%
- Efficacy in % Found (Botrytis cinerea [6]; rate 0.03%): 39%
- Efficacy in % Found (Botrytis cinerea [6]; rate 0.06%): 39%
- Efficacy in % Found (Botrytis cinerea [6]; rate 0.12%): 43%
- Efficacy in % Found (Botrytis cinerea [6]; rate 0.25%): 55%
- Efficacy in % Found ([7]; rate 0.11%): 57%
- Efficacy in % Found ([7]; rate 0.22%): 63%
- Efficacy in % Found ([7]; rate 0.44%): 41%
- Efficacy in % Found ([7]; rate 0.88%): 53%
- Efficacy in % Found ([8]; rate 0.11%): 25%
- Efficacy in % Found ([8]; rate 0.22%): 25%
- Efficacy in % (Botrytis cinerea [9]; rate 0.50% v/v): 0%
- Efficacy in % (Botrytis cinerea [9]; rate 1% v/v): 0%
- Efficacy in % (Botrytis cinerea [9]; rate 2% v/v): 0%
- Efficacy in % (Botrytis cinerea [9]; rate 4% v/v): 30%
- Efficacy in % (Botrytis cinerea [9]; rate 8% v/v): 50%
